# In all, about 33,000 sequences were measured (“E-score (dimensionless, -0.5 to 0.5)”: median about -0.058, highest 2% from about 0.35 on). This is one part of the list.
# Tested on: MvaT
# Experiment: PBM 8-mer E-score (mean of HK and ME arrays) (E-score (dimensionless, -0.5 to 0.5)); higher = stronger relative binding preference; most listed sequences are background and not binding sites
# Description: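 Protein binding microarray: GST-tagged full-length MvaT (P. aeruginosa PAO1) bound to two universal double-stranded 60-mer arrays (ME and HK), each with a constant 25-mer primer and a variable 35-mer region covering all 8-mers. The 8-mer E-score (rank-based, range -0.5 to 0.5, >0.45 = specific binding) is the mean of the two arrays.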
row,Sequence,PBM 8-mer E-score
1,CTCACACA,-0.0758
2,GAATGTCA,-0.014
3,CCAGACCA,-0.225
4,AGAATTAC,0.282
5,GGTAGACA,-0.0528
6,ATCTCTTA,0.144
7,CTGCTGCC,-0.132
8,AAGCAGCT,-0.177
9,AGAGTCCC,-0.105
10,ATGTGCAC,-0.0183
11,GTGGAGTA,0.0449
12,ACGTCTCG,-0.206
13,CATTAATA,0.369
14,AATAGAGA,0.217
15,GCATAGAA,-0.00205
16,CAAGCGAG,-0.22
17,CATCCCCA,-0.229
18,ACGAACGG,-0.25
19,CCGCGCGC,-0.161
20,AACCGTGG,0.0669
21,ACCCAGTA,-0.0124
22,AAACTCGG,-0.0569

row,Sequence,PBM 8-mer E-score
1,ACCTCCTG,-0.344
2,ACCCTGGG,-0.267
3,CATCAGCC,-0.216
4,GATCAAGA,-0.0768
5,AATGAAAC,0.172
6,AACGCGGG,-0.165
7,CACCGAGG,-0.213
8,CATGATCA,-0.141
9,TAAGAGTA,0.249
10,CCAGAGGC,-0.282
11,CTGCATTA,0.194
12,GGACTGGA,-0.181
13,AGGCTATA,-0.0511
14,ACCTGGGG,-0.366
15,CCGCTTAA,0.141
16,CGACGCCC,-0.293
17,AGACGCCA,-0.205
18,GCGATCCA,-0.191
19,TACCTTCA,-0.219
20,CCAGCCAG,-0.264
21,AGATATTA,0.412
22,ACAGATTC,-0.0147

row,Sequence,PBM 8-mer E-score
1,GCACCGCA,-0.128
2,AAAGAGTC,0.0357
3,AAGTGTCT,0.172
4,ATTTACAG,0.275
5,GCCGCCCC,-0.343
6,ATCGGCAA,-0.133
7,ACTGCAGC,-0.0667
8,ACCGCCAC,-0.0465
9,AAGGAATT,0.096
10,TGTCGACA,-0.108
11,AGGTGAAG,-0.152
12,GTACATAA,0.297
13,ACAGCGTG,-0.158
14,ACTTGGTG,-0.00701
15,CCGGTGTC,-0.0168
16,AGAGAACT,-0.046
17,CAAGTCGA,-0.225
18,AGCCCGAA,-0.22
19,CGCACGAA,0.0361
20,GACTTCAA,0.0947
21,ACTCGGAT,0.00133
22,GGTTTATA,0.242

row,Sequence,PBM 8-mer E-score
1,GATCGTCA,-0.124
2,AAGAGCAG,-0.0732
3,ACCACTGC,-0.0902
4,AGGACGCA,-0.148
5,CCCCGCGG,-0.282
6,GGTCGCTA,-0.19
7,AAGCTATG,-0.163
8,TCGCTCCA,-0.196
9,GCACAACA,0.139
10,CAACCAGG,-0.17
11,AAGTTATG,0.349
12,ATCTACGA,-0.0713
13,ACTGGGAA,-0.0942
14,GAAGTATC,0.0721
15,ACGTGAGT,-0.244
16,ACCTATAT,0.301
17,TACGACCA,-0.171
18,AGAGCACA,-0.00958
19,CCGGTAGA,-0.0881
20,AATCGCTC,-0.0326
